± gives the standard deviation. Only a part is listed here, and it is no random draw.
Test system: MIWI (PIWIL1) piRISC loaded with L1MC piRNA (30 nt)
Test: pre-steady-state target cleavage rate (min^-1); MIWI and MILI are mouse PIWI proteins and EfPiwi is from a freshwater sponge; tags in brackets are library labels; higher = faster piRNA-guided slicing of the target
Details: guide: L1MC piRNA 5'p-UAACUAAAUACUAUGCAAGCUGUAGGUCCU
Procedure, shortened: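 For Cleave-'n-Seq, a transcribed, DNA-blocked target RNA library […] met 1 nM active affinity-purified piRISC with one synthetic guide at 33 °C for 0–8 or 0–960 min in HEPES–potassium acetate buffer, with or without 500 nM GTSF1 partner protein. Uncleaved targets were sequenced and normalised to depth and weakly complementary targets, with three trials pooled and k3 capped at 0.0001 min^-1. A burst-and-steady-state fit supplied the pre-steady-state cleavage rate.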

[1] = auxiliary factor: 500 nM mouse GTSF1
[2] = auxiliary factor: none (no GTSF1)
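Also: 1 nM active piRISC with 0.1 nM target library at 33 °C single turnover.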

| Sequence | pre-steady-state target cleavage rate [1] | pre-steady-state target cleavage rate [2] |
| --- | --- | --- |
| UCCUGGAUGUCGAACGUAUGUAAUUUAGUUA | < 0.0001 | < 0.0001 |
| UGGAGGAACAGCUUGCAUAGUAUUUUCAAA | 0.158 ± 0.026 | 0.00441 ± 0.0026 |
| UCCUCCUAGUGCUUGCAUAGUAUUUAGUAA | 0.221 ± 0.037 | 0.0113 ± 0.0017 |
| UCCUGGUACUGCUUGCAUAGUAUUUAGUAA | 0.188 ± 0.03 | 0.0151 ± 0.0045 |
| UCGACGUACAGCUUGCAUAGUAUUUAGAUA | 0.394 ± 0.027 | 0.0398 ± 0.0071 |
| AGGACGUACAGCUUGCAUUGUAUUUAGUUA | 0.718 ± 0.047 | 0.0403 ± 0.0096 |
| UCGACCUACAACUUGCAUAGUAUUUAGUUA | 1.33 ± 0.041 | 0.0746 ± 0.015 |
| AGGACCUACAGCUUGCUUACUAUUUAGUUA | 0.461 ± 0.026 | 0.0147 ± 0.0035 |
| UCCUCCUACAGCUUGCAUAGUAAUUAGAUA | 0.297 ± 0.047 | 0.00556 ± 0.0028 |
| UCCACCUUCAGCUUGCAUAGUAUUUAGAUA | 0.216 ± 0.026 | 0.015 ± 0.0032 |
| UCCUGGAACUGGUUGCAUAGUAUUUAGUUA | 0.517 ± 0.032 | 0.00705 ± 0.0025 |
| UCCUGGAUCAUCUUGCAUAGUAUUUAGUUA | 0.83 ± 0.051 | 0.0176 ± 0.0051 |
| UGGACCUACAGCUUGCAUAGAAUAUAGUUA | 0.324 ± 0.031 | 0.01 ± 0.0046 |
| UCGACCUACUGGUUGCAUAGUAUUUAGUUA | 1.11 ± 0.035 | 0.0375 ± 0.0059 |
| UCGACCUACACCUUGGAUAGUAUUUAGUUA | 0.854 ± 0.076 | 0.0364 ± 0.0044 |
| UCCUGGAUCAGCUUGCAAAGUAUAUAGUUA | 0.407 ± 0.033 | 0.0169 ± 0.0052 |
| UCGACCAUGAGCUUGCAUAGUAUUUAGUUA | 0.876 ± 0.045 | 0.0511 ± 0.0092 |
| UCCUGCUACAGCUUUCAUAGUAUUUAGUUA | 0.409 ± 0.031 | 0.0119 ± 0.0022 |
| UCCUGGAUGUGCUAGCAAAGUAUUUAGUUA | 0.0143 ± 0.0039 | 0.00386 ± 0.0025 |
| UCCUGCUACAGCAUGCAUAGUAUUAAGUUA | 0.983 ± 0.1 | 0.00583 ± 0.0025 |
